The other results are listed elsewhere or left out. The data describe in vitro nicking of single-stranded DNA by Rep domains (1 h at 37 °C, 3 µM enzyme); the outer parts of the 90-letter strands are left off. The score is log2 (uncut reads / reads without enzyme); more negative means more cut, near 0 not cut, and no call is made. Because reads are shares of a total, they shift together; values above 0 arise when much of the pool is cut.
Columns and labels:
Test in all cases: uncleaved DNA left, log2 of reads against the no-enzyme library (log2 ratio); higher = less cleavage (more negative = more Rep cleavage of the k-mer); sequences stand for … in CTCGTCCG…ACCGGAGA
[1] = tested on: T1, Rep nickase domain of Muscovy duck circovirus
T1 sequence (residues 1-111, tag not shown): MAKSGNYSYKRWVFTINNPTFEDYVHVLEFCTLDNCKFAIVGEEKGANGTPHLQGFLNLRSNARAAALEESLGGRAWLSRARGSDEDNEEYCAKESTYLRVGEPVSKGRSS
Description: (§1)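 A pool of 90-nt single-stranded DNAs with seven random bases just before the constant AC of the nick site (name = the seven bases) was cut by 3 µM recombinant His6-SUMO-tagged Rep nickase domain (300 nM DNA, 50 mM HEPES pH 8.0, 50 mM NaCl, 1 mM MnCl2, 1 h, 37 °C, three replicates). Uncut DNA was amplified and sequenced.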

[2] = tested on: T2, Rep nickase domain of banana bunchy top virus
T2 sequence (residues 1-94, tag not shown): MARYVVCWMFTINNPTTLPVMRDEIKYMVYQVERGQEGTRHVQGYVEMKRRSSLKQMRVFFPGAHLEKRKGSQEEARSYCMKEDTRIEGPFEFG
Description: as §1

[3] = tested on: T3, Rep nickase domain of cabbage leaf curl virus
T3 sequence (residues 1-116, tag not shown): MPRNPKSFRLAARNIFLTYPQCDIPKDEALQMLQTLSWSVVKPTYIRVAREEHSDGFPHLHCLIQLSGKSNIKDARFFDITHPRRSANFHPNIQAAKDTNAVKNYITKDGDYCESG
Description: as §1

[4] = tested on: T4, Rep nickase domain of chickpea chlorotic dwarf virus
T4 sequence (residues 1-124, tag not shown): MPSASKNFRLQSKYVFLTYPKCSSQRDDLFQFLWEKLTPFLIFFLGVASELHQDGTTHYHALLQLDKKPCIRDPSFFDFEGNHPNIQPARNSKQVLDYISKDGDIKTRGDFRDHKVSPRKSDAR
Description: as §1

[5] = tested on: T5, Rep nickase domain of faba bean necrotic yellows virus
T5 sequence (residues 1-98, tag not shown): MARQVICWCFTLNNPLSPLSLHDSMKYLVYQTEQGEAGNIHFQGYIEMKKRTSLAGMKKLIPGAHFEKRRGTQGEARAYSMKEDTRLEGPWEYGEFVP
Description: as §1

[6] = tested on: T6, Rep nickase domain of maize striate mosaic virus
T6 sequence (residues 1-117, tag not shown): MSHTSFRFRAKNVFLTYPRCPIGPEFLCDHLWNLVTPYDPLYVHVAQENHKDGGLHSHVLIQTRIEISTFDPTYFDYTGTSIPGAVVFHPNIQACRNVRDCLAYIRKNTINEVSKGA
Description: as §1

[7] = tested on: T7, Rep nickase domain of porcine circovirus 2
T7 sequence (residues 2-116, tag not shown): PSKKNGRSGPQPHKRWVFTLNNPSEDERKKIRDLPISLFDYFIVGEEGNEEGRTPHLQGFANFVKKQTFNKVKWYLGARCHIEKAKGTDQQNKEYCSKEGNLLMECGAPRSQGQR
Description: as §1

[8] = tested on: T8, Rep nickase domain of tomato golden mosaic virus
T8 sequence (residues 1-124, tag not shown): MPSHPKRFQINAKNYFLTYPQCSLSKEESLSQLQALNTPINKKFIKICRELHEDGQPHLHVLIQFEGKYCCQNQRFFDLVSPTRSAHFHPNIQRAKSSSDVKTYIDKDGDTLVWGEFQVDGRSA
Description: as §1

[9] = tested on: T9, Rep nickase domain of tomato yellow leaf curl virus
T9 sequence (residues 1-136, tag not shown): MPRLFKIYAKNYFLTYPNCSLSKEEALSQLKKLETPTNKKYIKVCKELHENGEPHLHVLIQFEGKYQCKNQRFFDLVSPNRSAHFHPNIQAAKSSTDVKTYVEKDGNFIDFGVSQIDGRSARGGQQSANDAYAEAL
Description: as §1

[10] = tested on: T10, Rep nickase domain of wheat dwarf virus
T10 sequence (residues 1-137, tag not shown): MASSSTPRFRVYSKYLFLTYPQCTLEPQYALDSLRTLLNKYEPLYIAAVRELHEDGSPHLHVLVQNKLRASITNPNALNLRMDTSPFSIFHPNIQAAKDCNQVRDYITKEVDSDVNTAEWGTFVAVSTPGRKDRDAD
Description: as §1

Sequence | uncleaved DNA left (log2) [1] | uncleaved DNA left (log2) [2] | uncleaved DNA left (log2) [3] | uncleaved DNA left (log2) [4] | uncleaved DNA left (log2) [5] | uncleaved DNA left (log2) [6] | uncleaved DNA left (log2) [7] | uncleaved DNA left (log2) [8] | uncleaved DNA left (log2) [9] | uncleaved DNA left (log2) [10]
TAGTGGG | -0.141 | -0.127 | -0.552 | -0.744 | -0.0208 | -1.08 | -0.152 | -0.0616 | -0.0105 | -0.078
GACATTT | 0.023 | 0.00275 | 0.711 | 1.17 | 0.029 | 1.94 | -0.277 | -0.139 | 0.0355 | 0.141
AACGCAC | -0.0548 | -0.00313 | -0.317 | -0.107 | 0.0799 | -0.579 | 0.144 | 0.0959 | -0.0557 | 0.000977
CGGGCTA | 0.0825 | 0.0332 | 0.555 | 1.2 | 0.0707 | 1.82 | 0.163 | 0.0538 | -0.0186 | 0.0849
ACGCTTG | -0.0852 | -0.0347 | -0.453 | -0.664 | 0.0599 | -0.724 | 0.128 | 0.106 | 0.0949 | -0.101
TACAGCT | -0.0302 | -0.0565 | -1.25 | -2.6 | -0.0564 | -1.09 | -0.639 | -0.039 | 0.00149 | -0.118
GACTGGG | 0.19 | 0.0676 | -0.144 | -0.0887 | 0.209 | -0.535 | 0.281 | 0.135 | 0.184 | 0.17
CAGGAGA | 0.0441 | -0.0129 | 0.136 | 0.924 | -0.0686 | 0.652 | 0.142 | 0.00149 | -0.0616 | 0.0725
TTGACCC | -0.0577 | 0.0434 | 0.249 | 0.557 | -0.0499 | 0.415 | -0.129 | -0.0683 | -0.0638 | -0.051
CAATCAT | -0.45 | -0.0396 | -3.43 | -2.92 | -0.0564 | -1.68 | -3.18 | -2.78 | -0.0312 | -2.35
CACAGCC | -0.155 | -0.176 | -0.295 | -0.484 | -0.0592 | -0.939 | 0.0717 | -0.152 | -0.103 | -0.0987
CCGACGG | -0.101 | -0.141 | 0.128 | 0.711 | -0.0485 | 1.5 | 0.132 | 0.0811 | -0.154 | -0.0671
ACTCATC | -0.00373 | 0.0779 | -0.15 | -0.174 | -0.00378 | -1.05 | 0.106 | 0.00554 | -0.0487 | 0.136
GCGTTTA | -0.0685 | -0.0616 | -0.0784 | -0.0584 | -0.075 | 0.17 | -0.274 | -0.075 | -0.0441 | -0.0241
ACCACGC | 0.0741 | 0.0374 | -0.207 | -0.214 | 0.0749 | -0.806 | 0.0943 | 0.167 | -0.0137 | -0.0371
AGCTAAA | 0.0593 | 0.121 | -0.0917 | 0.434 | 0.0277 | 0.292 | -0.202 | 0.0616 | 0.0109 | 0.082
GCTTCAG | -0.0148 | 0.0351 | -0.263 | -0.199 | -0.0754 | -0.824 | 0.0503 | 0.109 | 0.0514 | -0.0711
CTACCTA | -0.0271 | -0.0305 | -0.167 | -2.48 | -0.00088 | -0.63 | -0.985 | -0.0827 | 0.0306 | -0.0712
GCTCGAA | 0.038 | -0.107 | 0.032 | 0.322 | -0.0907 | -0.0765 | -0.0472 | -0.071 | -0.113 | -0.0889
GGCCCAT | -0.0375 | 0.0842 | 0.716 | 1.73 | -0.0119 | 2.14 | 0.0984 | 0.013 | -0.0033 | 0.102
CTGCTCT | -0.0386 | 0.0188 | -0.206 | -1.73 | -0.0481 | -0.588 | -0.116 | 0.00837 | -0.047 | -0.00365
GACCGTA | 0.0745 | -0.0133 | 0.0859 | -0.000293 | 0.00575 | 0.307 | 0.0428 | 0.0378 | -0.0576 | 0.00148
CAGCTTG | -0.0765 | 0.0138 | 0.466 | 1.54 | -0.016 | 1.54 | 0.0833 | 0.155 | 0.0149 | 0.0401
GTCGATG | -0.222 | -0.141 | 0.161 | 0.519 | -0.124 | 1.39 | -0.163 | 0.00183 | -0.124 | -0.025
CCCTTTT | -2.78 | -0.322 | -0.262 | -2.48 | -0.0703 | -0.721 | -3.25 | -0.132 | -0.0796 | -0.233
TATCAGC | -0.0341 | 0.157 | -0.315 | -0.627 | 0.000832 | -1.12 | 0.116 | -0.0866 | 0.0593 | 0.105
ACCGTTG | 0.142 | 0.0626 | -0.391 | -0.321 | 0.257 | -0.696 | 0.278 | 0.145 | 0.25 | 0.15
GGGTTAA | 0.0133 | 0.056 | 0.723 | 1.74 | -0.00683 | 2.1 | 0.17 | 0.0452 | -0.00701 | 0.0976
TCGAATC | 0.07 | -0.129 | 0.136 | 0.0671 | 0.0889 | -0.356 | -0.0203 | -0.117 | -0.0152 | -0.0143
GGCTAGC | -0.0779 | 0.0587 | 0.275 | 0.722 | -0.0046 | 1.19 | 0.0691 | 0.0231 | -0.0503 | -0.0677
